# Test results published in PubChem BioAssay AID651820 (National Center for Advancing Translational Sciences (NCATS), 2012).
# About 12,000 (3.5%) of roughly 340,000 compounds were called active. This list was built around the results that the source calls inconclusive (neither active nor inactive); the mix of calls is not that of the screen. Calls follow the shape of the dose curve; as a rule, active = well fitted inhibition curve with a large enough effect; inconclusive = small, poorly fitted or top-dose-only effect, or another doubt; inactive = no such curve, though single readings can be large or run the other way. No potency is given beside an inconclusive call; the fits are too rough.
# Test: qHTS Assay for Inhibitors of Hepatitis C Virus (HCV)
# Conditions: Huh7.5.1 HCVcc-Cre (HCVcc is cell-culture hepatitis C virus) infection, luciferase reporter, 44 h; activity change, negative = inhibition: at 41.8 µM (top of the series) unless noted
# Procedure, shortened: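 After 44 h co-culture of compound, cells and HCVcc-Cre (~0.5 moi), substrate is added for 15 min at room temperature and luciferase measured over 15 sec. Cells were seeded at 1,000/well and pre-cultured 4 h.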
# % is scaled to controls: 0 for no effect and ±100 for the full control effect; potency is read from the fitted curve at half-maximal effect; tags tell the direction and shape of the fitted curve.
SMILES,Potency,"activity change, negative = inhibition"
O=C(CSc1n[nH]c(=O)n1Cc1ccccc1)Nc1ccc(N2CCOCC2)cc1,"inconclusive [inhibitor, single point]",–
CCCOc1ccc(-c2nnc(-c3cccs3)o2)cc1,–,inactive: 0.588%
CC(C)Oc1ccc(C(=O)Nc2cc(S(=O)(=O)N3CCOCC3)ccc2N2CCOCC2)cc1,"inconclusive [inhibitor, full curve]",–
CN(Cc1ccccc1)C(=O)CN1C(=O)NC(C)(c2ccc(C(C)(C)C)cc2)C1=O (centres undefined),"inconclusive [inhibitor, single point]",–
C[C@H](CO)N1C[C@H](C)[C@@H](CN(C)C(=O)Nc2ccc(C(F)(F)F)cc2)Oc2ccc(NC(=O)Cc3ccccc3)cc2C1=O,"inconclusive [inhibitor, single point]",–
Cc1cc(F)ccc1N1CCC(N2CCN(C(C)C)C(CCO)C2)CC1 (centres undefined),"inconclusive [inhibitor, partial curve]",–
Cc1cc(C(=O)NCC(=O)OC(C)C(=O)N2CCOCC2)ccc1[N+](=O)[O-] (centres undefined),–,inactive: 6.05%
COc1ccc(C(=O)NC(=S)N2CCOCC2)cc1[N+](=O)[O-],–,inactive: -4.5%
O=C(NNc1ncc(C(F)(F)F)cc1Cl)c1c(Cl)cccc1Cl,–,inactive: -25.7%
CCOC(=O)N/N=C/c1ccc(OCCSc2ccc(Cl)cc2)c(OCC)c1,"inconclusive [inhibitor, partial curve]",–
COCCN(C(=O)COC(=O)c1oc2ccc(OC)cc2c1C)c1c(N)n(Cc2ccccc2)c(=O)[nH]c1=O,"inconclusive [inhibitor, partial curve, poor fit]",–
COc1cccc(Cn2c(C3CC3)nc3ccc(NC(=O)c4ccco4)cc3c2=O)c1,"inconclusive [inhibitor, single point]",–
CCN(CC)S(=O)(=O)c1ccc(NC(=O)Nc2cccc(C(F)(F)F)c2)cc1,active: 11.2 µM,–
CC1CCCN(C(=O)COC(=O)c2cc(-c3cccs3)nn2-c2ccccc2)C1 (centres undefined),–,inactive: 7.25%
C=CCn1c(SCC(=O)NCc2ccco2)nc2sc3c(c2c1=O)CCC3,"inconclusive [inhibitor, partial curve]",–
CCC(=O)NC(NC(=S)Nc1cccc2cccnc12)C(Cl)(Cl)Cl (centres undefined),"inconclusive [inhibitor, single point]",–
CN(c1ccccc1)S(=O)(=O)c1cccc(C(=O)Nc2cccc(C(=O)NC3CC3)c2)c1,"inconclusive [inhibitor, partial curve]",–
CCOC(=O)c1cc2c(ccn2C)n1Cc1ccccc1Cl,"inconclusive [inhibitor, partial curve]",–
Cn1c(CSc2nc3ccccc3s2)n[nH]c1=S,–,inactive: -3%
CCN1CCN(c2ccc(NC(=O)c3ccc(OC)c(S(=O)(=O)N4CCCC4)c3)cc2)CC1,–,inactive: -9.14%
COc1ccc2sc(-c3ccccc3OC)c(C#Cc3cncn3C)c2c1,"inconclusive [inhibitor, single point]",–
O=C(c1ccccc1)N1CCN(C(=O)c2cc3nc(-c4ccccc4)cc(C(F)(F)F)n3n2)CC1,"inconclusive [inhibitor, partial curve, poor fit]",–
COc1ccc2oc(C(=O)OCc3c(C)noc3C)c(C)c2c1,"inconclusive [inhibitor, single point]",–

SMILES,Potency,"activity change, negative = inhibition"
Cc1cc(C)c2nc(N3CCC(C(=O)N4CCN(C(=O)c5ccco5)CC4)CC3)sc2c1,"inconclusive [inhibitor, single point]",–
C=CCNCC(=O)N1N=C(c2ccc3ccccc3c2)CC1c1ccc(OC)cc1 (centres undefined),"inconclusive [inhibitor, partial curve]",–
CCN(CC)S(=O)(=O)c1ccc(Cl)c(C(=O)Nc2nnc(C)s2)c1,active: 22.4 µM,–
CCOC(=O)C1=C(C)N(CCCCCC(=O)O)C(=O)NC1c1ccccc1OS(=O)(=O)c1ccc(C)cc1 (centres undefined),–,inactive: 1.55%
O=C(NCc1ccco1)c1cc(-c2cccs2)nc2ccccc12,"inconclusive [inhibitor, single point]",–
CCn1c(SCC(=O)N2CCC(C(N)=O)(N3CCCCC3)CC2)nnc1-c1ccccc1,inactive,–
COc1ccc(OC)c(N(CC(=O)NCCSCc2ccc(C)cc2)S(C)(=O)=O)c1,–,inactive: -18.8%
COc1ccc(N2CCN(C(=O)COC(=O)CCc3ccccc3)CC2)cc1,–,inactive: -11.5%
Cc1ccc(S(=O)(=O)c2nc(N3CCOCC3)sc2Cl)cc1,"inconclusive [inhibitor, single point]",–
CN(CC(=O)Nc1ccccc1C(=O)NC1CC1)Cc1ccc(Cl)cc1,"inconclusive [inhibitor, single point]",–
Cc1c(C(=O)NC(C)C)sc2ncn(CC(=O)N3CCC(C)CC3)c(=O)c12,–,inactive: 19.3%
CCS(=O)(=O)c1ncc(Cl)c(C(=O)Nc2ccc(S(=O)(=O)N3CCC(C)CC3)cc2)n1,"inconclusive [inhibitor, single point]",–
COC(=O)c1ccc(NC(=O)C(=O)N2CCN(C(=S)Nc3ccc(C)cc3)CC2)cc1,"inconclusive [inhibitor, single point]",–
COC(=O)c1cc(NC(=O)CCc2c(C)nc3ncnn3c2C)cc(C(=O)OC)c1,"inconclusive [inhibitor, single point]",–
CC1CCCC(C)N1C(=O)COc1ccc(C(=O)Nc2ccccc2N2CCOCC2)cc1 (centres undefined),"inconclusive [inhibitor, single point]",–
CN(/N=C/c1ccc2c(c1)OCO2)c1nc(N2CCOCC2)nc(N2CCOCC2)n1,"inconclusive [inhibitor, full curve]",–
COc1ccc(C(=O)COC(=O)CCNS(=O)(=O)c2ccccc2)c(OC)c1,"inconclusive [inhibitor, partial curve, poor fit]",–
CC(=O)Nc1ccc(S(=O)(=O)NCC2CCC(C(=O)N3CC(C)CC(C)C3)CC2)cc1 (centres undefined),–,inactive: 3%
O=C(CSC1=NC(=O)C(c2ccccc2)C(=O)N1)Nc1ccccc1[N+](=O)[O-] (centres undefined),"inconclusive [inhibitor, partial curve]",–
Cc1ccc(-c2onc3ccc(C(=O)/C=C/N(C)C)cc23)cc1,"inconclusive [inhibitor, single point]",–
Cc1ccc(S(=O)(=O)N2CCOCC2)cc1NC(=O)COC(=O)CCC(=O)c1cccs1,–,inactive: 8.13%
O=C(Nc1ccccc1)Nc1ccc2snnc2c1,active: 11.2 µM,–
CCc1ccc2[nH]c(=O)c(CN(Cc3ccccc3)Cc3nnnn3Cc3ccco3)cc2c1,"inconclusive [inhibitor, full curve]",–

SMILES,Potency,"activity change, negative = inhibition"
c1ccc2c(c1)OC(CCCN1CCCCC1)c1ccccc1S2 (centres undefined),active: 25.1 µM,–
CCn1c(N2CCN(C(=S)NCCc3ccccc3)CC2)nc2ccccc21,"inconclusive [inhibitor, partial curve]",–
CCOC(=O)C1=C(CN2CCc3ccccc32)NC(=O)NC1c1cccc([N+](=O)[O-])c1 (centres undefined),"inconclusive [inhibitor, partial curve]",–
O=C(COc1ccc(Cl)cc1)Nc1ccc(Cc2ccncc2)cc1,"inconclusive [inhibitor, single point]",–
O=C(CN1C(=O)/C(=C/c2ccc(F)cc2)SC1=S)N1CCN(CCc2ccccn2)CC1,"inconclusive [inhibitor, partial curve]",–
COC(=O)c1ccc(N2CCC(c3cc(-c4ccc(OC)cc4)n[nH]3)CC2)c([N+](=O)[O-])c1,active: 11.2 µM,–
COc1ccc(-n2nnc3c(SCC(=O)NCC4CCCO4)ncnc32)cc1 (centres undefined),–,inactive: -5.28%
COc1ccc(C(=O)c2sc3nc(C)cc(-c4cccs4)c3c2N)cc1OC,"inconclusive [inhibitor, partial curve]",–
Cn1cnc2cc(OC(=O)c3ccccc3)ccc21,–,inactive: 0.182%
c1ccc(-c2nc(CSc3nnnn3-c3ccccc3)cs2)cc1,–,inactive: -14%
CN(C)S(=O)(=O)c1cccc(C(=O)Nc2ccc(S(=O)(=O)N3CCCC3)cc2)c1,–,inactive: -12.1%
O=S(=O)(c1cccs1)N1CN(Cc2ccccc2)c2nc3ccccc3nc21,–,inactive: -13.4%
O=C(COC(=O)CCCNC(=O)c1ccc(Cl)cc1)NC1CC1,–,inactive: 12.3%
CCOC(=O)c1ccc2[nH]c3c(c2c1)CCCCC3=O,"inconclusive [inhibitor, partial curve]",–
COc1ccc(OC)c(NC(=O)CSc2ncnc3c2cnn3-c2ccccc2Cl)c1,active: 0.891 µM,–
CCOc1ccc(C(=O)Nc2ccccc2CC)cc1[N+](=O)[O-],"inconclusive [inhibitor, partial curve, poor fit]",–
COc1cc(-c2nc3cnccn3c2Nc2ccc(C)cc2)ccc1O,"inconclusive [inhibitor, single point]",–
CC(C)CN(C(=O)COC(=O)Cc1cccc2ccccc12)c1c(N)n(Cc2ccccc2)c(=O)[nH]c1=O,"inconclusive [inhibitor, full curve]",–
CC(C)(C)NC(=O)NC(=O)COC(=O)c1cccc(S(=O)(=O)N2CCCCC2)c1,–,inactive: 30.1%
CN1C(=O)C2(CCCCC2)C1c1ccccc1 (centres undefined),"inconclusive [inhibitor, single point]",–
Cc1ccc(-c2cc(C(=O)N3CCOCC3)no2)cc1,–,inactive: 12.8%
COc1cccc(NC(=O)C(Sc2nnc(Nc3ccccc3C)s2)c2ccccc2)c1 (centres undefined),"inconclusive [inhibitor, single point]",–
CSc1ccccc1NC(=O)N1CCC(CO)(CC2CCCCO2)CC1 (centres undefined),–,inactive: 18.3%
